# Data published in the supplement of paper PMC12217912.
# This is one part of the list. The full chains were built here from the parent and the listed change. Inactive controls read about 0.05.
# B1: TEV protease; numbered along this chain (parent)
# chain: MGESLFKGPRDYNPISSSICHLTNESDGHTTSLYGIGFGPFIITNKHLFRRNNGTLVVQSLHGVFKVKDTTTLQQHLVDGRDMIIIRMPKDFPPFPQKLKFREPQREERICLVTTNFQTKSMSSMVSDTSCTFPSGDGIFWKHWIQTKDGQCGSPLVSTRDGFIVGIHSASNFTNTNNYFTSVPKNFMELLTNQEAQQWVSGWRLNADSVLWGGHKVFMVKPEEPFQPVKEATQL
# Variants of: B1
# Test: raw area under fraction-flipped curve 0-4 h after induction (AUC4h, not background-subtracted), DNA-recorder readout of cleavage of the substrate (dimensionless); higher = more cleavage of the substrate by the protease variant
# Conditions: temperature: 34 °C; time window: 0-4 h after rhamnose induction
# Description: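 In vivo DNA recorder in E. coli TOP10(DE3) ΔrhaA at 34 °C. Each TEVp single-site mutant (parent TEVp 0) is paired with a single-site variant of the 7-mer TEVs (canonical ENLYFQ|S). The substrate sits between flexible linkers in a Bxb1-sfGFP-TEVs-SsrA fusion, so cleavage stabilises Bxb1 and speeds flipping of a recombination array, read by NGS. The value is the raw area under the fraction-flipped curve over 0-4 h after rhamnose induction (AUC4h), with ≥20 reads per time point. It is not background-subtracted; inactive controls average about 0.047.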
# 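Note: Bxb1 expression induced with 0.2% (w/v) L-rhamnose at OD600 near 0.5, cultures sampled hourly, flipped fraction per protease–substrate barcode pair counted by paired-end Illumina sequencing.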
Variant,area with substrate ENLYFAS,area with substrate ENLYFCS,area with substrate ENLYFDS,area with substrate ENLYFES,area with substrate ENLYFFS,area with substrate ENLYFGS,area with substrate ENLYFHS,area with substrate ENLYFIS,area with substrate ENLYFKS,area with substrate ENLYFLS,area with substrate ENLYFMS,area with substrate ENLYFNS,area with substrate ENLYFPS,area with substrate ENLYFRS,area with substrate ENLYFVS,area with substrate ENLYFWS,area with substrate ENLYFSS,area with substrate ENLYFTS,area with substrate ENLYFYS
W144N,0.0545,0.0708,0.0538,0.0603,0.0602,0.0589,0.0557,0.0527,0.0561,0.0663,0.0619,0.0793,0.0822,0.0715,0.07,0.0585,,,
W144V,0.0576,,,0.034,0.0714,0.0404,0.0607,0.0595,0.0712,0.0596,0.0664,0.0635,0.0587,0.0793,0.0589,0.0464,0.0876,0.057,
W144Y,0.0622,0.0669,0.0606,0.0611,0.0712,,0.0654,0.0627,0.0606,0.05,0.056,0.0794,0.07,0.0543,0.0634,0.0602,0.0563,0.0602,0.0523
K148A,0.0509,0.0488,0.0666,0.0794,0.0689,0.0738,0.0309,0.0514,0.0483,0.0673,0.0642,0.0522,0.0587,0.0489,0.0535,0.0595,0.0929,0.0537,0.0573
G150E,0.0535,0.0624,0.0687,0.0838,0.0745,0.0796,0.0481,0.0606,0.0612,0.0573,0.0557,0.0485,0.0601,0.0482,0.051,,0.0616,0.0594,0.0533
G150W,0.0556,,0.0567,0.0602,0.0669,0.0626,0.0617,0.055,0.0691,0.0549,0.0599,0.0548,0.0598,0.0591,0.0596,0.0585,0.0653,0.0368,0.0508
C152A,0.0396,0.0632,0.0577,0.0499,0.0702,,,0.0576,0.051,0.0672,0.0561,0.0613,0.0582,0.0534,0.0608,0.0534,,,
C152E,0.0503,0.0388,0,0.064,0.0767,,0.0549,0.0582,,0.0597,0.0585,0.0647,0.0575,0.0717,0.0594,0.0528,0.0694,0.0563,0.0517
C152G,0.0586,0.0543,0.0598,0.0615,0.0719,,0.0628,0.0573,0.075,0.0571,0.0599,0.0638,0.0663,0.0563,,0.0512,,0.0598,0.0649
C152I,0.0459,0.0626,0.0633,0.0275,0.0766,0.0469,0.054,0.0525,0.0682,0.0624,0.0605,0.0437,0.0576,0.053,0.0482,0.0401,0.0629,0.0585,0.0641
C152L,0.0256,0.0514,,0.0523,,,0.0553,,0.0585,,0.0556,,0.0546,0.0586,0.0517,0.0627,,0.0634,
C152W,0.0602,0.0606,0.0565,0.0656,0.0832,0.0671,0.0696,0.0544,0.05,0.0311,0.0513,0.0663,0.0596,0.0702,0.0554,0.0535,,0.0516,0.0596
R160D,0.0645,0.0657,,0.042,0.0779,0.0742,0.0633,0.0637,0.0559,,0.0749,0.0663,,0.0561,0.0309,0.0571,,0.0532,0.0487
R160I,0.0711,0.0616,0.0586,0.0633,0.0696,0.0688,0.0613,0.0534,,0.0708,0.0611,0.0618,0.0589,0.0683,0.0461,0.0569,,0.0658,0.0602
R160Y,0.0638,0.054,,0.06,0.0706,0.0546,0.074,0.0595,,0.0377,0.0683,0.074,0.0688,0.0571,,0.0583,0.0571,,
D161V,0.0464,0.0548,0.0434,0.0569,0.052,0.0596,,0.0487,0.057,0.0497,0.0614,0.0376,0.0533,0.0571,0.0563,,0.0517,0.0527,0.0548
G162C,0.0269,0.061,0.0526,0.0673,0.0535,,0.06,0.0659,0.0648,0.0596,0.0561,0.0585,0.0591,0.0623,0.0609,0.0575,,0.0549,0.0491
I164A,0.0646,0.0566,,0.0434,0.0863,,0.0398,0.0431,0.055,,,,0.0493,0.0502,,0.0612,0.0476,0.0515,0.0485
V165E,0.0601,,0.05,0.0437,0.0581,,0.0559,0.0438,0.035,0.0505,0.0561,0.0474,0.0528,0.0603,0.0539,0.0525,0.0462,0.0468,0.0414
I167K,0.06,0.0545,0.0558,0.0525,0.0634,,0.0429,0.0499,0.0522,,0.0508,0.0648,0.0541,0.0559,,0.0609,0.0541,0.0604,
H168A,0.0562,0.0589,,,,,,0.0565,,0.0606,,,,,,,0.0763,0.0592,
H168D,0.0592,0.0438,,0.0611,0.0654,0.0501,,0.0541,,0.0547,0.0622,0.0646,0.0559,0.0713,0.0516,0.0605,0.0582,0.0594,0.0492
